# Experimental data taken from the supplement of paper PMC11417369.
# ± gives the standard deviation of the averaged measurements. The list shows a part of the results.
# System: PfAP2-LT AP2 domain (GST-tagged)
# Assay: gcPBM binding intensity (ln(normalized median fluorescence intensity)); higher = stronger DNA binding
# Outline: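 Using an Agilent 4 × 180k array, primer-extended double-stranded 36-bp intergenic genomic probes and negative controls were exposed for 1 h to GST-fused P. falciparum DNA-binding domains expressed in E. coli. Binding was carried out in 1× PBS with 1% milk, 0.2 mg/ml BSA, 0.5% salmon testes DNA and 0.03% Triton X-100, and protein was detected with Alexa488 anti-GST antibody and a 488 nm scan. Binding intensity is the highest Masliner-normalised natural-log median intensity across replicate spots of either probe orientation.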
row,Sequence,gcPBM binding intensity (ln)
1,GTAATACACATATAATGTACTCATAAATATATTTAT [XGTACX_site4041],8.88 ± 0.33
2,TCATAGGAGAACTTTTGTACAGATTTTTCTTTTTTT [XGTACX_site2853],8.52 ± 0.56
3,ATGTTAACTAAATGTACACACCTATGTTGATGTAAC [CACACA_site5073],9.11 ± 0.31
4,TATATATATAAAATATGTACATAAAATTATTTATTT [XGTACX_site7666],8.53 ± 0.47
5,AAAGTTTAAATGAGAAGTACAAATTTTTGTTTTTAT [XGTACX_site1844],8.46 ± 0.57
6,GTGGTTGTAATGGTGGTGCATATTGTATATTATGTT,9.515 ± 0.078
7,AATTTTATATATATATGTACATATTTATATGCTTAT [XGTACX_site8180],9.05 ± 0.46
8,AATATAAGTGTACATACACACTTTACAATATCATAT [CACACA_site5634],8.97 ± 0.4
9,ACATACATACCCCCACGTACGTACCGAAACACCACC [XGTACX_site1982],9.74 ± 0.028
10,TTTCTATATCTTTCAACACACAAATTTTTTTTTCCA [CACACA_site108],8.6 ± 0.57
11,CAAAGAACTTATAGGGTGCTTTACTTATAAGTAAAT [GTGCAC_site9579],8.6 ± 0.51
12,TTACTACTATATTATACACACATATATATATATATA [CACACA_site2621],9.385 ± 0.078
13,TTCTAATATTTTTGCACACTAAACAATAAATTTCCT [CACACA_site3944],8.87 ± 0.46
14,TTTATTTATGTAGATACACACCCATGTTATATGGAG [CACACA_site9144],8.76 ± 0.46
15,TGTGAATAAATAAGCACACATAAACACATATATAAA [CACACA_site6114],9.21 ± 0.45
16,TTAAAAGAAAAAATATGTACATATATTATATATATC [XGTACX_site7009],8.65 ± 0.38
17,GTTTATTCTTTTTATACACACCTTATTTGATTAACA [CACACA_site4567],9.03 ± 0.37
18,AATAATATATATATATATATATATAGATATGTATAT [GTGCAC_negctrl_site653],9.03 ± 0.29
19,AGCAAAAATTAAATAAATAAATATATATATATATAT [TGCATGCA_negctrl_site449],9.12 ± 0.43

row,Sequence,gcPBM binding intensity (ln)
1,AATGATGTCATAGGGGGTACACATAAATGTGAATGT [XGTACX_site6745],9.16 ± 0.11
2,GCAACATTCTAAGACACACACACACCCATATATATA [CACACA_site1053],9.87 ± 0.19
3,ATATTAATAATATATACACACATAAGTATTGTATAT [CACACA_site4095],8.89 ± 0.35
4,TCTTCTAATTTACCTACACACAGGAGATATATAAAT [CACACA_site6276],8.75 ± 0.37
5,TATATATATATATATTGTACAAAATATTTATATGTT [XGTACX_site436],9.12 ± 0.26
6,GTTCATAAATTAAACACACACACACCCCTGGATACC [CACACA_site3331],10.13 ± 0.085
7,TAATTAATTTATTAGTTGCACTGTACCATTAGAGTA,8.59 ± 0.44
8,ATCAACATTATGGTTAGTACTTAGTGAATTGTTAAT [XGTACX_site4926],8.69 ± 0.41
9,GTGTAATATATTTTTCGTACATATTATATATATATA [XGTACX_site1675],8.86 ± 0.42
10,TTATACACCTTTCATTGTACATATAATTTATATTCT [XGTACX_site8685],8.89 ± 0.42
11,AATATTCAATATATATATATATATAATATTAATATA [GTGCAC_negctrl_site571],8.71 ± 0.34
12,ATATTTTATTTAATTACACACAATATTGCAATTTGT [CACACA_site669],9.32 ± 0.4
13,TAATACCATAACAAGTGTACATAAATAATTATTGTA [XGTACX_site4949],8.86 ± 0.38
14,AAGGATTTTTTATACACACACTAACTAATGTATATA [CACACA_site7163],9 ± 0.34
15,TATATTACTTTGTGTTGTACGGAAATATATATATAT [XGTACX_site4309],8.71 ± 0.35
16,AAAACTATTAAATGTAGTACATAATTATTGAAATAA [XGTACX_site8716],8.66 ± 0.42
17,AAATACATATCATGTAGTACATATATATGTAGGTTA [XGTACX_site5392],9.29 ± 0.28
18,ATAATTATTCTTATGGTGCACTGAATATACATGTTG [GTGCAC_site9760],8.95 ± 0.44
19,CAAAAATATATTTTTTGTACACAAAAAAAAAATAAA [XGTACX_site5229],8.53 ± 0.46

row,Sequence,gcPBM binding intensity (ln)
1,ATAGCACATTTTTAAGCACACGTTTATTATATATAT [CACACA_site6084],9.05 ± 0.34
2,TTTTTTTGCTCTTTTTATATATATATATATATATAT [GTGCAC_negctrl_site70],9.29 ± 0.19
3,TTTTTATTGAGATACTTATATAATTTTATGAATAAA [XGTACX_negctrl_site311],8.03 ± 0.45
4,TTTGAAAAGTTGAAATGTACACATTTACACATATTT [XGTACX_site1641],8.86 ± 0.36
5,TGTTGTATTTTTACAACACACATTTAATCCATTTAA [CACACA_site1507],8.61 ± 0.44
6,CTTATATATTGGGATAGTACTTTTAACTAAATAGAA [XGTACX_site5900],8.37 ± 0.43
7,ACTTTACGAATTAAGAGTACTTATTTAAGGAACACT [XGTACX_site7919],8.64 ± 0.37
8,TACACAAAAATAAACACACACACATATATATATATA [CACACA_site1000],9.79 ± 0.23
9,TATATATTCCTCCATAGTACAATAATAAAGATAAAA [XGTACX_site5785],8.58 ± 0.38
10,ACCAATTTGACAAACTGTACAAAAAAAATATTAAAA [XGTACX_site1186],8.59 ± 0.6
11,AACATTAATTTCCTATGTACTTAATATATTGTTTTT [XGTACX_site4440],8.83 ± 0.4
12,AACACCCAAAAACACACACACATACATACATACATA [CACACA_site4411],9.8 ± 0.23
13,ATTTATATATATGTATGTACGTATGTGTGTATATGT [XGTACX_site7587],9.36 ± 0.35
14,CTTTCCCTATATTGCTGTACATGTATTCAAAAAACA [XGTACX_site353],8.66 ± 0.37
15,CGCGAACATACATACACACACATATATATATCTGTA [CACACA_site4277],9.62 ± 0.4
16,TTATGTATATTATAAATTAATACCTTTAAATTAATA [CACACA_negctrl_site67],8.14 ± 0.48
17,TATAACTTATTTTTTAGTACATATTATAGTTCATTT [XGTACX_site8649],8.66 ± 0.49
18,TATATATACTTAGAAACACACAAAAATATTTTATAA [CACACA_site2578],8.66 ± 0.39
19,TAATTAGTTTTTACTTTTTTTTTTTTTTTTCTATAT [CACACA_negctrl_site1024],8.37 ± 0.54
